# Test results from PubChem BioAssay (Tox21).
# Values joined by “and” are separate entries in the source; they are usually repeats but may differ in a detail not shown here. Equal entries are not always repeated. Inconclusive means that the source gave no clear call. Such entries were picked first, then a sample of the others. For some of these results: Where the call is inconclusive, the potency comes from a doubtful curve fit. Active and inactive are the calls of the source. Unless noted, the call rests on the fitted dose curve; in most records, active means well fitted curve in the direction sought with a large enough effect in the repeat runs; inconclusive means weak or mixed curves; inactive means no such curve, though single readings can be large; an effect the other way counts as inactive or inconclusive.
# Experiments:
# [1] = qHTS assay to identify small molecule antagonists of the androgen receptor (AR) signaling pathway - cell viability counter screen (AID 743033; further: potency means the concentration at half of the fitted maximal effect; nearly all actives have a fitted effect of over 45% in size)
# [2] = qHTS assay to identify small molecule antagonists of the estrogen receptor alpha (ER-alpha) signaling pathway using the BG1 cell line (AID 743080; calls by dose curve;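 further: BG1 cells stimulated with 17beta-estradiol alongside compound; nearly all actives have a fitted effect of over 25% in size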; further: potency means the concentration at half of the fitted maximal effect); conditions: BG1Luc4E2 ERE-luciferase antagonist mode, luminescence; activity change, negative = inhibition: at 70.3 µM (top of the series) unless noted
# Procedure, shortened: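 Endogenous full-length ER-alpha in BG1-Luc-4E2 cells drives a stably integrated 4×ERE luciferase gene; compounds were tested against 17beta-estradiol over 21.5 h, with luminescence and multiplexed viability fluorescence recorded.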
# [3] = qHTS assay to identify small molecule antagonists of the estrogen related receptor (ERR) signaling pathway from Tox21 library - cell viability counter screen (AID 1224834); further: nearly all actives have a fitted effect of over 30% in size; further: potency means the concentration at half of the fitted maximal effect
# Procedure, shortened: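 Viability readout (CellTiter-Fluor fluorescence, 30 min at 37 C) multiplexed with the ERR assay; cells treated 17.5 h at 37 C with compounds delivered in DMSO.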
# [4] = qHTS assay to identify small molecule antagonists of the constitutive androstane receptor (CAR) signaling pathway - cell viability counter screen (AID 1224837); further: nearly all actives have a fitted effect of over 45% in size; further: potency means the concentration at half of the fitted maximal effect
# Procedure, shortened: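 Fluorescence from CellTiter-Fluor served as the viability signal. Human hepatoma HepG2 cells stably bearing hCAR and CYP2B6-2.2kb received compound plus CITCO (50 nM final) for 23 hr.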
# [5] = qHTS assay to identify small molecule antagonists of the estrogen related receptor signaling pathway with the pleiotropic PPARgamma coactivator (PGC) from Tox21 10K library (AID 1224841; call rule not given here; further: potency means the concentration at half of the fitted maximal effect; actives are mostly falling curves and most rising ones were filed inactive; nearly all actives have a fitted effect of over 50% in size)
# Procedure, shortened: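 Compound exposure ran 18 hours at 37 C in PGC/ERR cells (2,000/well) that had first rested 6 hours in a 37 C/5% CO2 incubator. Luciferase activity was then detected with One-Glo after a 30-minute room-temperature step.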
# [6] = qHTS assay to identify small molecule agonists of the sonic hedgehog signaling (Shh) pathway - cell viability counter screen (AID 1259366); further: nearly all actives have a fitted effect of over 50% in size; further: potency means the concentration at half of the fitted maximal effect
# Procedure, shortened: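 Cells are plated at 2,000 per well and left 4hr at 37C, 5% CO2 before compound addition. After 23hr of treatment, CellTiter-Fluor reagent is added for 1hr at 37C and fluorescence is measured.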
# [7] = Human pregnane X receptor (PXR) small molecule agonists, qHTS cell viability counter screen (AID 1346977); further: potency means the concentration at half of the fitted maximal effect; nearly all actives have a fitted effect of over 50% in size
# Procedure, shortened: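 Cytotoxicity counter screen run in the same wells as the PXR luciferase assay, using PXR-Luc HepG2 cells in charcoal-stripped serum medium. Viability: CellTiter-Fluor fluorescence after 24hr compound treatment.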
# [8] = Caspase-3/7 induction in HepG2 cells by small molecules, qHTS cell viability counter screen (AID 1346981); further: nearly all actives have a fitted effect of over 30% in size; further: potency means the concentration at half of the fitted maximal effect
# Procedure, shortened: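 Counter screen for cytotoxicity: HepG2 exposed 16 hr to compounds, then CellTiter-Fluor viability signal (fluorescence, 1 hr reagent incubation).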
# [9] = biological target: Acetylcholinesterase (Homo sapiens) (UniProt P22303); assay: Acetylcholinesterase (AChE) small molecule antagonists: fluorescence cell-based qHTS assay (AID 1347398; calls by dose curve; further: potency means the concentration at half of the fitted maximal effect; nearly all actives have a fitted effect of over 50% in size); conditions: Potency: AChE activity
# Procedure, shortened: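 Thiocholine generated from acetylthiocholine by SH-SY5Y cell AChE is detected with Thiolite Green (Ex/Em 490/520 nm) after 40 min at room temperature, following 30 min compound pretreatment at 37 C.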
# [10] = qHTS assay to identify small molecule antagonists of the estrogen receptor alpha (ER-alpha) signaling pathway using the BG1 cell line - cell viability counter screen (AID 743081); conditions: BG1Luc4E2 viability, CellTiter-Fluor, 22 h; activity change, negative = cytotoxicity: at 70.3 µM (top of the series);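 further: compound given together with 17beta-estradiol as the ER stimulus; nearly all actives have a fitted effect of over 45% in size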; further: potency means the concentration at half of the fitted maximal effect
# [11] = biological target: Aryl hydrocarbon receptor (Homo sapiens) (UniProt P35869); assay: qHTS assay to identify small molecule that activate the aryl hydrocarbon receptor (AhR) signaling pathway (AID 743085); further: nearly all actives have a fitted effect of over 15% in size; further: potency means the concentration at half of the fitted maximal effect;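 on activation: HG2L7.5c1 human HepG2 liver cells with stably integrated DRE-driven firefly reporter; on the % scale 0 is the no-effect control and ±100 the full control effect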
# Procedure, shortened: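 Compounds were tested in HepG2 hepatocellular carcinoma cells harbouring a stably integrated luciferase gene under control of 20 DREs. Increased reporter signal after 24 h treatment at 37C was taken as AhR activation.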
# [12] = qHTS assay to identify small molecule antagonists of the peroxisome proliferator-activated receptor gamma (PPARg) signaling pathway - cell viability counter screen (AID 743194); conditions: PPARg-bla HEK293H viability, CellTiter-Glo luminescence, 17 h; Potency: co-treated with 50 nM rosiglitazone unless noted; activity change, negative = cytotoxicity: at 62.6 µM (top of the series), co-treated with 50 nM rosiglitazone unless noted; further: nearly all actives have a fitted effect of over 55% in size; further: potency means the concentration at half of the fitted maximal effect; on activity change, negative = cytotoxicity: on the % scale 0 is the no-effect control and ±100 the full control effect
# Procedure, shortened: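 PPARg-UAS-bla HEK293H cells were plated, rested 5 h at 37 C, then treated with compounds plus rosiglitazone (50 nM final) for 17 h at 37 C; viability was then read by CellTiter-Glo luminescence after 30 min at room temperature.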
# [13] = A CellTox Green Cytotoxicity Assay to monitor cytotoxicity in HepG2 cells - 40 hour (AID 1224879); further: nearly all actives have a fitted effect of over 40% in size; further: potency means the concentration at half of the fitted maximal effect
# Procedure, shortened: (§1)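 Continuous culture of HepG2 cells with a membrane-impermeant DNA dye; rising fluorescence marks dead cells. Compound exposure lasted up to 40 h at 37 C, with reads every 8 h from 0 h.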
# [14] = A CellTox Green Cytotoxicity Assay to monitor cytotoxicity in HepG2 cells - 32 hour (AID 1224883); further: nearly all actives have a fitted effect of over 50% in size; further: potency means the concentration at half of the fitted maximal effect
# Procedure, shortened: as §1
# [15] = biological target: Peroxisome proliferator-activated receptor gamma (Homo sapiens) (UniProt P37231); assay: qHTS assay to identify small molecule agonists of the peroxisome proliferator-activated receptor gamma (PPARg) signaling pathway (AID 743094; active means well fitted activation curve with a large enough effect in the signal ratio in the repeat runs, not every such curve was filed as active; inconclusive means weak or mixed curves, or effect the other way; inactive means no such curve, though single readings can be large or run the other way; the % refers to the signal ratio; further: potency means the concentration at half of the fitted maximal effect; on activation: on the % scale 0 is the no-effect control and ±100 the full control effect); conditions: HEK293H PPARg-UAS-bla, beta-lactamase FRET ratio, 17 h; activation: at 57 µM (top of the series) unless noted
# Procedure, shortened: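 Stably transfected HEK293H cells (GeneBLAzer PPARg UAS-bla) were incubated with test substances for 17 h at 37C after a 5 h pre-incubation; beta-lactamase activity was then detected by FRET substrate fluorescence.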
# [16] = qHTS assay to identify small molecule agonists of the peroxisome proliferator-activated receptor delta (PPARd) signaling pathway - cell viability counter screen (AID 743211); conditions: PPARd-bla HEK293H viability, CellTiter-Glo luminescence, 17 h; activity change, negative = cytotoxicity: at 62.6 µM (top of the series); further: nearly all actives have a fitted effect of over 55% in size; further: potency means the concentration at half of the fitted maximal effect; on activity change, negative = cytotoxicity: on the % scale 0 is the no-effect control and ±100 the full control effect
# Procedure, shortened: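 Counter screen for cytotoxicity run in parallel with the PPARd reporter screen. Beta-lactamase reporter HEK293H cells exposed to compounds 17 h; ATP-based CellTiter-Glo luminescence quantified viability.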
# [17] = qHTS assay to identify small molecule agonists of H2AX (AID 1224845; active means well fitted activation curve with a large enough effect in the signal ratio in the repeat runs, not every such curve was filed as active; inconclusive means weak or mixed curves; the % refers to the signal ratio; further: potency means the concentration at half of the fitted maximal effect); conditions: CHO-K1 phospho-H2AX Ser139 HTRF, 3 h; activation (H2AX phosphorylation): at 154 µM (top of the series) unless noted
# Procedure, shortened: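 Wild-type CHO-K1 cells plated overnight, then exposed 3 hr at 37C to compounds at 15 concentrations (0.76% DMSO). Lysed, then HTRF anti-pH2AX(S139)-cryptate/anti-H2AX-d2 detection after 24 hr at room temperature; emissions 665 and 620 nm.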
# [18] = qHTS assay to identify small molecule antagonists of the sonic hedgehog signaling (Shh) pathway - cell viability counter screen (AID 1259367); further: nearly all actives have a fitted effect of over 55% in size; further: potency means the concentration at half of the fitted maximal effect
# Procedure, shortened: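 After a 4 hr settling period, 3T3 Gli1-Luc cells were treated with DMSO-dissolved chemicals and conditioned medium, kept 24 hr at 37C in 5% CO2, and assayed for viability by CellTiter-Fluor fluorescence following 1 hr reagent incubation.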
# [19] = biological target: Thyrotropin receptor (Homo sapiens) (UniProt P16473); assay: qHTS assay to identify small molecule antagonists of the thyroid stimulating hormone receptor (TSHR) signaling pathway (AID 1259385; calls by dose curve; further: on the % scale 0 is the no-effect control and ±100 the full control effect; nearly all actives have a fitted effect of over 20% in size); conditions: TSHR-HEK293 cAMP HTRF, TSH-stimulated antagonist mode; activity change, negative = inhibition: at 92.4 µM (top of the series)
# Procedure, shortened: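 TSHR-HEK293 cells were plated and held 18 h at 37C/5% CO2, then given compound plus Ro20-1724 and stimulated with TSH at 1.5 ng/mL final. After 30 min at room temperature, cAMP was detected with cAMP-d2/anti-cAMP-cryptate (1 h) by fluorescence.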
# Tags describe the fitted curve by direction and shape or compound fluorescence and quenching.
# Sequence of UniProt P22303 (P22303 whole entry, looked up): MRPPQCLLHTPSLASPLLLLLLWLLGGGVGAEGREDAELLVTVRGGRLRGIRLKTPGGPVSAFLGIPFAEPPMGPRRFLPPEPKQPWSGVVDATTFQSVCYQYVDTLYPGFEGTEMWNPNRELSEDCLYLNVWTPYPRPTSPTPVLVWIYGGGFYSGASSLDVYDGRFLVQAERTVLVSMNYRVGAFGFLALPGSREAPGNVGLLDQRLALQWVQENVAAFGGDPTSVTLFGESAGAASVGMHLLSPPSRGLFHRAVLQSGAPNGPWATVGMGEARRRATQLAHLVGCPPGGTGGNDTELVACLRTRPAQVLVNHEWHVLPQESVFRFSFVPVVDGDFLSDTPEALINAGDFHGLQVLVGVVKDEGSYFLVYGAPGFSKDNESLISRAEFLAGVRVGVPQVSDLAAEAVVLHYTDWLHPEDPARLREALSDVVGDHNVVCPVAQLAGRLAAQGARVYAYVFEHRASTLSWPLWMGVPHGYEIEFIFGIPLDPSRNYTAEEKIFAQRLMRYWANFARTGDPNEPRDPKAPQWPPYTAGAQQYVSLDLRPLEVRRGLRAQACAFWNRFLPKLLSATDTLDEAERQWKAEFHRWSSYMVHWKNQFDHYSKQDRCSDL
# Sequence of UniProt P37231 (P37231 whole entry, looked up): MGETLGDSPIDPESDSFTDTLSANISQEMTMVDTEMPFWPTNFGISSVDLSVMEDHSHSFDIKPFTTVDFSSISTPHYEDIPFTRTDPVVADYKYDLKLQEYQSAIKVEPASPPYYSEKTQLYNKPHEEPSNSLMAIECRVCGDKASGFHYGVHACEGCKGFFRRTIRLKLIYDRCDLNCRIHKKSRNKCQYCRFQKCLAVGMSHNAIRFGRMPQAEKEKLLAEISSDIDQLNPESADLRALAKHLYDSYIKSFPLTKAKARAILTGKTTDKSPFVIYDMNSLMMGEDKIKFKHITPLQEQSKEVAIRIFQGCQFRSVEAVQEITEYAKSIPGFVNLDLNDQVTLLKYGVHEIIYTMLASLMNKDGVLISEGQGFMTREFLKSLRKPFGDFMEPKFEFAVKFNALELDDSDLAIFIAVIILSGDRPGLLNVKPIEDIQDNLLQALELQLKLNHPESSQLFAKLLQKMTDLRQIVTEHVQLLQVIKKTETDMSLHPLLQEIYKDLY
# Sequence of UniProt P16473 (P16473 whole entry, looked up): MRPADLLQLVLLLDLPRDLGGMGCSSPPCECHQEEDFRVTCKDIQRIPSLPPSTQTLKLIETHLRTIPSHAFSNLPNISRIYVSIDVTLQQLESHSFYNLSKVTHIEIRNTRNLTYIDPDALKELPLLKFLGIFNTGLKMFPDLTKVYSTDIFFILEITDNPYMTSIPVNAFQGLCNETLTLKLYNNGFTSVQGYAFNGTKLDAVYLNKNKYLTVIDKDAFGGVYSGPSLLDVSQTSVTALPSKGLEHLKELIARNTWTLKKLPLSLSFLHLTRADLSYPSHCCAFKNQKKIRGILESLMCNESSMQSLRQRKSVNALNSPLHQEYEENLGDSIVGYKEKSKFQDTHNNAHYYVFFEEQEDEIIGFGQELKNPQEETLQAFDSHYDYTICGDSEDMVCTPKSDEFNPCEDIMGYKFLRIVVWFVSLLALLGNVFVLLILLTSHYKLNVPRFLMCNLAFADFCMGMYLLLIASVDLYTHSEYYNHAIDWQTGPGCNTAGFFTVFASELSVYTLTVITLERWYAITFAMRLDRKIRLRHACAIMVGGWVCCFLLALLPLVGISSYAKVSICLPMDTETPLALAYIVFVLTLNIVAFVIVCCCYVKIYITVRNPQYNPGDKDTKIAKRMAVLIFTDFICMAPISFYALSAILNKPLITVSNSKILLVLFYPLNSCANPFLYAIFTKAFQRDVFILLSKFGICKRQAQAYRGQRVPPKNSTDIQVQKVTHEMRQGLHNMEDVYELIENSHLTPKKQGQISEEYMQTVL
# Sequence of UniProt P35869 (P35869 whole entry, looked up): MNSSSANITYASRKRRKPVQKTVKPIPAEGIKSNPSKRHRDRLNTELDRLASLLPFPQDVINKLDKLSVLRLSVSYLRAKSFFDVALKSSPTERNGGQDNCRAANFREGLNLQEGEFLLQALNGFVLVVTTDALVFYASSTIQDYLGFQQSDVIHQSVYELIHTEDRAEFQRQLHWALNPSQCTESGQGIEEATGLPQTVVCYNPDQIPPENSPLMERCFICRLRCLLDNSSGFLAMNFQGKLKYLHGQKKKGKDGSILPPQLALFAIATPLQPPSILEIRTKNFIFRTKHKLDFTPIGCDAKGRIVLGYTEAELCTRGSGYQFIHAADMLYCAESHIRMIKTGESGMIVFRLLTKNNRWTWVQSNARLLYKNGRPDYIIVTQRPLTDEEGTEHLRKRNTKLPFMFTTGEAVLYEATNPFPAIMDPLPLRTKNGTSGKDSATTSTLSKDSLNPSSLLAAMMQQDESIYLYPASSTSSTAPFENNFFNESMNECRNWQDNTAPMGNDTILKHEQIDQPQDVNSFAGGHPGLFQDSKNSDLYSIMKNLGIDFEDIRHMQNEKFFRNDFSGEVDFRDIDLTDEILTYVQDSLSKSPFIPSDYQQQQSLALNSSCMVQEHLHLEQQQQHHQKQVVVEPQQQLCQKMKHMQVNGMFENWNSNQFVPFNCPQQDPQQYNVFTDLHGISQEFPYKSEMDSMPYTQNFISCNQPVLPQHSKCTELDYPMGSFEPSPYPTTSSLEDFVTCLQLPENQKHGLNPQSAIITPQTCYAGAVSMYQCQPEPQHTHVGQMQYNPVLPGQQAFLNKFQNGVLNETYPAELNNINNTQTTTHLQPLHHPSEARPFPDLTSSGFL
compound,measurement,setting,value
Clc1ccc(C2(Cn3cncn3)CC(Br)CO2)c(Cl)c1 (stereo not given),Potency,[1],inconclusive: 30.7 µM [cytotoxic]
same,Potency,[2],"inconclusive: 38.3 µM [falling, partial curve, poor fit]"
same,Potency,[3],"inconclusive: 68.2 µM [cytotoxic, single point]"
same,Potency,[4],inconclusive: 68.2 µM [cytotoxic]
same,Potency,[5],active: 24.2 µM
same,Potency,[6],"inconclusive: 43 µM [cytotoxic, partial curve]"
same,Potency,[7],"inconclusive: 68.2 µM [cytotoxic, single point]"
same,Potency,[8],"inconclusive: 76.5 µM [cytotoxic, single point]"
same,Potency,[9],"inconclusive: 62.9 µM [inhibitor, partial curve]"
CCOC1Oc2ccc(OS(C)(=O)=O)cc2C1(C)C (stereo not given),Potency,[1],"inconclusive: 54.5 µM [cytotoxic, single point]"
same,Potency,[2],"inconclusive: 60.6 µM [falling, partial curve]"
same,Potency,[10],"inconclusive: 76.3 µM [cytotoxic, partial curve, poor fit]"
same,Potency,[11],inactive
same,Potency,[12],inactive
CCCCc1c(C)nc(NCC)[nH]c1=O,Potency,[13],"inconclusive: 21.9 µM [activator, partial curve, poor fit]"
same,Potency,[14],"inconclusive: 21.9 µM [activator, partial curve, poor fit]"
same,Potency,[6],inactive
O=c1[nH]c2ccccc2n1C1CCNCC1,Potency,[13],inactive
C=C(C)CCl,Potency,[15],inactive
same,Potency,[16],inactive
same,Potency,[3],"inconclusive: 0.0217 µM [cytotoxic, single point]"
CC(C)(C)OOC(=O)c1ccccc1,Potency,[10],inactive
same,Potency,[14],"inconclusive: 49.1 µM [activator, partial curve, poor fit]"
CCS(=O)(=O)CCSP(=O)(OC)OC,activation,[15],inconclusive: 5.95%
same,Potency,[16],"inconclusive: 24.5 µM [cytotoxic, single point]"
same,Potency,[3],inactive
same,Potency,[6],"inconclusive: 61.1 µM [cytotoxic, partial curve]"
CCOC(=O)C(SP(=S)(OC)OC)c1ccccc1 (stereo not given),Potency,[17],"inconclusive: 28.4 µM [rising, full curve]"
same,Potency,[18],inactive
same,Potency,[8],inactive
CCN(CC)Cc1nccn1-c1ccc([N+](=O)[O-])cc1C(=O)c1ccccc1Cl,Potency,[10],"inconclusive: 2.37 µM [cytotoxic, full curve, poor fit]"
same,Potency,[12],inactive
same,Potency,[3],inactive
same,Potency,[4],active: 26.6 µM
same,Potency,[6],"inconclusive: 26.6 µM [cytotoxic, partial curve]"
same,Potency,[18],"inconclusive: 13.3 µM [cytotoxic, partial curve]"
same,Potency,[7],"inconclusive: 26.6 µM [cytotoxic, partial curve]"
same,Potency,[8],"inconclusive: 26.6 µM [cytotoxic, partial curve, poor fit]"
Cc1cc(Cl)ccc1O[C@H](C)C(=O)O,Potency,[17],inactive
Nc1ncc([N+](=O)[O-])s1,Potency,[10],"inconclusive: 61.6 µM [cytotoxic, partial curve]"
same,Potency,[11],"inconclusive: 54.5 µM [activator, partial curve]"
same,Potency,[4],"inconclusive: 54.9 µM [cytotoxic, partial curve]"
same,Potency,[6],"inconclusive: 34.7 µM [cytotoxic, partial curve]"
same,Potency,[18],"inconclusive: 49 µM [cytotoxic, partial curve]"
same,Potency,[19],inactive
same,Potency,[7],"inconclusive: 35.5 µM [cytotoxic, partial curve]"
CCOC(=O)NC(=S)Nc1ccccc1NC(=S)NC(=O)OCC,Potency,[13],"inconclusive: 54.9 µM [activator, single point]"
Cn1c(-c2ccccc2)cc(-c2ccccc2)[n+]1C,Potency,[1],"inconclusive: 19.5 µM [cytotoxic, partial curve] and inconclusive: 19.5 µM [cytotoxic, partial curve, poor fit]"
same,Potency,[10],"inconclusive: 38.5 µM [cytotoxic, partial curve]"
same,Potency,[11],inactive
same,Potency,[9],"inconclusive: 35.5 µM [inhibitor, partial curve] and inconclusive: 35.6 µM [inhibitor, partial curve]"
NC(=S)C(N)=S,Potency,[12],"inconclusive: 21.9 µM [cytotoxic, single point]"
same,Potency,[5],"inconclusive: 68.6 µM [falling, partial curve, poor fit]"
Cc1cnc(C2=NC(C)(C(C)C)C(=O)N2)c(C(=O)O)c1 (stereo not given),Potency,[16],"inconclusive: 0.49 µM [rising, full curve, poor fit]"
same,Potency,[13],inactive
same,Potency,[6],inactive
CC(C)[C@]12CC(=O)[C@H](C)[C@H]1C2,Potency,[15],inactive
same,"activity change, negative = inhibition",[19],inconclusive: 2.89%
CCN(CC)CCN1C(=O)CN=C(c2ccccc2F)c2cc(Cl)ccc21,Potency,[11],inconclusive: 33.5 µM [activator]
same,Potency,[7],"inconclusive: 33.5 µM [cytotoxic, single point]"
O=C(O)Cc1ccccc1,Potency,[15],"inconclusive: 26.8 µM [activator, single point]"
same,Potency,[16],inactive
same,Potency,[8],"inconclusive: 33.5 µM [rising, partial curve, poor fit]"
O=[N+]([O-])c1ccc([As](=O)(O)O)cc1,Potency,[10],"inconclusive: 0.15 µM [rising, partial curve, poor fit]"
same,Potency,[4],inactive
same,Potency,[13],"inconclusive: 61.6 µM [activator, single point]"
same,Potency,[14],"inconclusive: 61.6 µM [activator, single point]"
CCCC1CCCCN1 (stereo not given),Potency,[1],"inconclusive: 26.8 µM [rising, single point]"
same,Potency,[2],inactive
same,Potency,[14],inactive
